Source: ChEMBL document CHEMBL1157539, “Thousands of chemical starting points for antimalarial lead identification” (Nature, 2010)
“And” between values parts separate entries of the source, which are not always exact repeats. Equal entries are not always repeated. In all, about 13,000 compounds were measured (“IFI”: median about 4, highest 2% from about 17 on). This is one part of the list.

Assay: GSK_TCMDC: Inhibition Frequency Index (IFI). The number of non-kinase HTS assays where a compound showed > 50 % inhibition, expressed as a percentage of the number of such assays in which the compound was tested (-0 is zero)
Assay type: functional

Row | Compound | IFI
1 | C=Cc1cc(OC)c2c(c1)c(=O)oc1c2cc(OC)c2c(O)ccc([C@H]3O[C@H]([C@H](C)O)[C@H](O)[C@H]3O)c21 | 10.7%
2 | COC(=O)c1ccc(CC(C)NCC(O)c2cccc3ccccc23)cc1 (stereo not given) | 1.47%
3 | COc1ccc(C[C@H]2NC[C@H](O)[C@H]2OC(C)=O)cc1 | 8.51%
4 | Cc1ccc(CC(C)NCC(O)c2cccc([N+](=O)[O-])c2)cc1 (stereo not given) | 2.96%
5 | COCCNCc1cccc(-c2ccc(CN(C(=O)NC3CCCCC3)C3CCN(Cc4ccccc4)CC3)cc2)c1 | 6.87%
6 | COC(=O)/C=C/c1ccc(CC(C)NCC(O)c2cccc(C(F)(F)F)c2)cc1 (stereo not given) | 5.07% and 6.72%
7 | O=C(NC1CCC(CN2CCC(c3c[nH]c4ccccc34)CC2)CC1)c1ccc(-c2ccccc2[N+](=O)[O-])o1 (stereo not given) | 5.3%
8 | CCOC(C(=O)OCC1CCCN1C)(c1ccccc1)c1ccccc1 (stereo not given) | 2.19%
9 | c1ccc2c(NCCCCCCNc3c4c(nc5ccccc35)CCCC4)c3c(nc2c1)CCCC3 | 10.5%
10 | CN(c1cc(NC(=O)c2cccs2)ccn1)C1CCN(Cc2ccccc2)CC1 | 2.78%
11 | CC[C@H]1CN2CCc3cc(OC)c(OC)cc3[C@@H]2C[C@@H]1C[C@H]1NCCc2cc(OC)c(OC)cc21 | 9.86%
12 | COc1ccc(CC(C)NCC(O)c2cccc(Br)c2)cc1 (stereo not given) | 5.07%
13 | Cc1[nH]c2ccc([N+](=O)[O-])cc2c1C1=CCN(C)CC1 | 2.03%
14 | CCC1CN2CCc3cc(OC)c(OC)cc3C2CC1CC1NCCc2c1[nH]c1ccc(O)cc21 (stereo not given) | 11.1%
15 | CC[C@@]1(O)C(=O)OCc2c1cc1n(c2=O)Cc2c-1nc1cc3c(cc1c2CN1CCOCC1)OCO3 | 6.43%
16 | O=C(Nc1ccccc1OC(F)(F)F)NC1CCC(CN2CCC(c3c[nH]c4ccccc34)CC2)CC1 (stereo not given) | 3.62% and 3.52%
17 | C/C=C1\CN2CC[C@H]1C[C@@H]2[C@@H](O)c1ccnc2ccc(O)cc12 | -0%
18 | Cc1cc(C)c(CC(C)NCC(O)c2cccc(C(F)(F)F)c2)c(C)c1 (stereo not given) | 9.85%
19 | Cc1nc(N)nc(N)c1-c1cccc(Cl)c1 | 2.24%
20 | COC(=O)c1ccc(CC(C)NCC(O)c2cccc(C(F)(F)F)c2)cc1F (stereo not given) | 3.62%
21 | Oc1ccccc1CNCC(O)c1cccc(C(F)(F)F)c1 (stereo not given) | 4.24%
22 | OC(CNC1CCCCCC1)c1ccc(Cl)c(Cl)c1 (stereo not given) | 2.24%
23 | O=C(NC1CCC(CN2CCC(c3c[nH]c4ccccc34)CC2)CC1)c1cn(Cc2ccccc2)c2ccccc12 (stereo not given) | 5.97%

Row | Compound | IFI
24 | CN(C)c1cccc(NC(=O)NC2N=C(c3ccccc3)c3ccccc3N(CC(=O)N(C)c3ccccc3)C2=O)c1 (stereo not given) | 2.88%
25 | COc1cc(C=CC(=O)NC2CCC(CN3CCC(c4c[nH]c5ccccc45)CC3)CC2)cc(OC)c1 (stereo not given) | 5.76%
26 | CCCCCCc1cc(O)c2c3c(c(=O)oc2c1)CCN(C)C3 | 2.26%
27 | CC(Cc1ccc(OCCCCOc2ccccc2)cc1)NCCCn1ccnc1 (stereo not given) | 32.6%
28 | Cc1cc(NC(=O)[C@H](CC(C)C)Nc2ccc(C#N)c3ccccc23)ccc1F | 7.48%
29 | CN(c1cc(NC(=O)c2ccc(F)cc2)ccn1)C1CCN(Cc2cccc(O)c2)CC1 | 4.76%
30 | O=C(Nc1ccc(Oc2ccccc2)cc1)N1CCC(CN2CCC(c3c[nH]c4ccccc34)CC2)CC1 | 6.47%
31 | OC(CNCc1ccccc1OC(F)F)c1cccc(C(F)(F)F)c1 (stereo not given) | 2.34%
32 | O=C(/C=C/c1ccc([N+](=O)[O-])cc1)NC1CCC(CN2CCC(c3c[nH]c4ccccc34)CC2)CC1 (stereo not given) | 3.62% and 2.94%
33 | CC[C@H]1CN2CC[C@@H]1C[C@H]2[C@H](O)c1cc(N2CCC(O)CC2)nc2ccc(OC)cc12 | -0%
34 | CC(=O)Nc1ccc(CN2CCC(N(C)c3cc(NC(=O)c4ccc(F)cc4)ccn3)CC2)cc1 | -0%
35 | Cc1ccc(C)c(N2CCN(Cc3ccccc3O)CC2)c1 | 0.72%
36 | O=C(NC1CCC(CN2CCC(c3c[nH]c4ccccc34)CC2)CC1)c1cc(-c2ccccc2)c(C(F)(F)F)s1 (stereo not given) | 6.8%
37 | Cc1c2ccncc2c(C)c2c1[nH]c1ccccc12 | 7.3%
38 | CCOC(C(=O)OCC1CCCN1C(C)C)(c1ccccc1)c1ccccc1 (stereo not given) | -0%
39 | Cc1csc(-c2ccc3[nH]cc(C4=CCN(C)CC4)c3c2)n1 | -0%
40 | O=C(c1ccccc1)C1CC1CN1CC=C(c2c[nH]c3ccccc23)CC1 (stereo not given) | 0.88%
41 | CS(=O)(=O)Nc1ccc2[nH]cc(C3CCN(CC4CCN(C(=O)/C=C/c5ccc(Cl)c(Cl)c5)CC4)CC3)c2c1 | 2.19%
42 | O=C(NC1CCC(CN2CCC(c3c[nH]c4ccccc34)CC2)CC1)c1cc2cccc([N+](=O)[O-])c2[nH]1 (stereo not given) | 3.65%
43 | Cc1ccc2c(C3=CCN(CCCCC4(C)C(=O)Nc5ccccc54)CC3)c(C)[nH]c2c1 (stereo not given) | 2.19%
44 | COc1cccc(C(=O)C2CC2CN2CC=C(c3c[nH]c4ccc(OC)nc34)CC2)c1 (stereo not given) | 5.56%
45 | CC[C@H]1CN2CC[C@@H]1C[C@H]2[C@H](O)c1cc(-c2ccc(F)cc2)nc2ccc(O)cc12 | 4.41%
46 | O=C(/C=C/c1ccc(Cl)cc1)NC1CCC(CN2CCC(c3c[nH]c4ccccc34)CC2)CC1 (stereo not given) | 4.23% and 5.63%

Row | Compound | IFI
47 | COCCNCc1ccc(-c2ccc(CN(C(=O)NC3CCCCC3)C3CCN(Cc4ccccc4)CC3)cc2)cc1 | 7.52%
48 | CCCC(=O)c1c(O)c2ccccc2oc1=O | 0.72%
49 | CSc1ccc(C[C@@H](C)NC[C@H](O)c2cccc(Cl)c2)cc1 | 5.04%
50 | COc1ccc(CN(C2CC2)C(C)C(=O)c2[nH]c(C)c(C(C)=O)c2C)cc1 (stereo not given) | 12.5%
51 | CC1CN=C(Nc2ncc(Cl)cc2Cl)N1 (stereo not given) | 0.7%
52 | CCCCC/C=C/C(=O)NC1CCC(CN2CCC(c3c[nH]c4ccccc34)CC2)CC1 (stereo not given) | 3.52%
53 | Cc1[nH]c2ccccc2c1C1=CCN(CCCCC2(C)C(=O)Nc3ccccc32)CC1 (stereo not given) | 2.17%
54 | C=C[C@H]1CN2CC[C@H]1C[C@H]2[C@H](O)c1cc(/C=C/c2ccc(F)cc2)nc2ccc(OC)cc12 | 6.9%
55 | Cc1[nH]c2ccc(O)cc2c1C1CCN(CC2CCC(NC(=O)/C=C/c3ccc(Cl)c(Cl)c3)CC2)CC1 (stereo not given) | 5.19%
56 | Cc1[nH]c2ccccc2c1C1=CCN(CCCCC2(C)C(=O)Nc3cccc(F)c32)CC1 (stereo not given) | 3.68%
57 | C[C@@H](CC1CCCCC1)NCc1ccccc1O | 3.39%
58 | CC(=O)Nc1ccc2[nH]cc(C3CCN(CC4CCC(NC(=O)/C=C/c5ccc(Cl)c(Cl)c5)CC4)CC3)c2c1 (stereo not given) | 2.82% and 2.9%
59 | CC[C@H]1CN2CC[C@H]1C[C@@H]2[C@@H](O)c1cc(Cl)nc2ccc(OC)cc12 | 2.9%
60 | CCCCCOc1ccc(CC(C)NCC(O)c2cccc(Cl)c2)cc1 (stereo not given) | 4.86%
61 | COc1ccc(CCNCc2ccc3nc(N)c(C)cc3c2)cc1 | 2.96%
62 | CC(C)(C)c1cc(/C=C/C(=O)NC2CCC(CN3CCC(c4c[nH]c5ccccc45)CC3)CC2)cc(C(C)(C)C)c1O (stereo not given) | 13.4%
63 | CC(Cc1ccc([N+](=O)[O-])cc1)NCC(O)c1cccc(C(F)(F)F)c1 (stereo not given) | 3.73%
64 | COc1ccc(CN2CCN(CCOC(c3ccccc3)c3ccccc3)CC2)c(O)c1 | 4.23%
65 | Cc1ccc(C)c(C=CC(=O)NC2CCC(CN3CCC(c4c[nH]c5ccccc45)CC3)CC2)c1 (stereo not given) | 5.22% and 6.62%
66 | CCCCOC(C(=O)OCC1CCCN1C)(c1ccccc1)c1ccccc1 (stereo not given) | 0.73%
67 | Oc1cccc(C2CCCN(CCc3c[nH]c4ccccc34)C2)c1 (stereo not given) | 3.6%
68 | CC[C@H]1CN2CC[C@@H]1C[C@H]2[C@H](O)c1cc[n+]([O-])c2ccc(OC)cc12 | -0%
69 | CC[C@H]1CN2CC[C@@H]1C[C@H]2[C@H](O)c1cc(N2CCC(O)(c3ccc(Cl)cc3)CC2)nc2ccc(OC)cc12 | 10.3%

Row | Compound | IFI
70 | CC(C)CCNC(=O)c1cc(C(=O)c2cc(F)ccc2O)cn(CCC(C)C)c1=O | 0.86%
71 | CCCCCc1cc(O)c2c(c1)OC(C)(C)CC2C1=CCN(Cc2cccnc2)CC1 (stereo not given) | 2.16%
72 | O=C(/C=C/c1ccc(Cl)cc1Cl)NC1CCC(CN2CCC(c3c[nH]c4ccccc34)CC2)CC1 (stereo not given) | 9.09%
73 | CC(Cc1ccc(OCCCCOc2ccccc2)cc1)NCCCc1nc2ccccc2[nH]1 (stereo not given) | 33.3%
74 | CC(C)CNCc1cccc(-c2ccccc2CN(C(=O)Nc2ccccc2)C2CCN(Cc3ccccc3)CC2)c1 | 7.91%
75 | CC[C@H]1CN2CC[C@H]1C[C@H]2[C@H](O)c1cc(-c2ccccc2C)nc2ccc(OC)cc12 | 5.44%
76 | CC(Cc1ccc(NC(=O)[C@H](C)NCCc2cccc(Cl)c2)cc1)NCCc1cccc(Cl)c1 (stereo not given in full) | 9.35%
77 | CC[C@H]1CN2CC[C@@H]1C[C@H]2[C@H](O)c1cc(N2CCC(C)CC2)nc2ccc(OC)cc12 | 5.07%
78 | O=C(Nc1cc(C(F)(F)F)cc(C(F)(F)F)c1)c1cc(Cl)ccc1O | 33.3%
79 | CN1CCC(N(C)c2nccc(N3CCN(Cc4cncn4Cc4ccccc4)CC3)n2)CC1 | -0%
80 | C#CCN1CCC2=C(C1)c1c(O)cc(C(C)CCCc3ccc(F)cc3)cc1OC2(C)C (stereo not given) | 1.41%
81 | O=C(C=C1c2ccccc2-c2ccccc21)NC1CCC(CN2CCC(c3c[nH]c4ccccc34)CC2)CC1 (stereo not given) | 2.99% and 5.15%
82 | CCCCCCCSc1ccc(CC(C)NCC(O)c2cccc(Cl)c2)cc1 (stereo not given) | 9.93%
83 | O=C(/C=C/c1cccs1)NC1CCC(CN2CCC(c3c[nH]c4ccccc34)CC2)CC1 (stereo not given) | 6.25%
84 | Cc1[nH]c2cc(Cl)ccc2c1C1=CCN(CCCCC2(C)C(=O)Nc3ccccc32)CC1 (stereo not given) | 2.38%
85 | COc1ccc(C[C@@H](C)NC[C@H](O)c2cccc(Cl)c2)cc1F | 1.44% and 3.65%
86 | COC(=O)c1ccc(CC(C)NCC(O)c2cccc(Cl)c2Cl)cc1 (stereo not given) | 3.62%
87 | CC(C)CNCc1cccc(-c2cccc(CN(C(=O)c3cccs3)C3CCN(Cc4ccccc4)CC3)c2)c1 | 9.86%
88 | Oc1cc2c(cc1CN1CCN(Cc3ccccc3)CC1)CCC2 | 1.52%
89 | CN(C)CCCn1cc(C(=O)OC2CC3CCC(C2)N3C)c2cc(-c3ccccc3)ccc21 (stereo not given) | 9.79%
90 | CCOc1ccc(-c2nc3cc(-c4nc5cc(N6CCN(C)CC6)ccc5[nH]4)ccc3[nH]2)cc1 | 4.41%
